Results from paper PMC4336329 (PLoS ONE, 2015).
Among all 310,000 compounds or so, about 2,200 (0.71%) showed an effect of 50% or more. The effect is printed as a negative number. Some of the results follow.

These molecules were tested against human ether-à-go-go-related gene (hERG) potassium channel (human, UniProt Q12809) (assay: primary screen, population patch clamp on CHO cells stably expressing hERG).
Chain of human ether-à-go-go-related gene (hERG) potassium channel (Q12809 whole entry, looked up): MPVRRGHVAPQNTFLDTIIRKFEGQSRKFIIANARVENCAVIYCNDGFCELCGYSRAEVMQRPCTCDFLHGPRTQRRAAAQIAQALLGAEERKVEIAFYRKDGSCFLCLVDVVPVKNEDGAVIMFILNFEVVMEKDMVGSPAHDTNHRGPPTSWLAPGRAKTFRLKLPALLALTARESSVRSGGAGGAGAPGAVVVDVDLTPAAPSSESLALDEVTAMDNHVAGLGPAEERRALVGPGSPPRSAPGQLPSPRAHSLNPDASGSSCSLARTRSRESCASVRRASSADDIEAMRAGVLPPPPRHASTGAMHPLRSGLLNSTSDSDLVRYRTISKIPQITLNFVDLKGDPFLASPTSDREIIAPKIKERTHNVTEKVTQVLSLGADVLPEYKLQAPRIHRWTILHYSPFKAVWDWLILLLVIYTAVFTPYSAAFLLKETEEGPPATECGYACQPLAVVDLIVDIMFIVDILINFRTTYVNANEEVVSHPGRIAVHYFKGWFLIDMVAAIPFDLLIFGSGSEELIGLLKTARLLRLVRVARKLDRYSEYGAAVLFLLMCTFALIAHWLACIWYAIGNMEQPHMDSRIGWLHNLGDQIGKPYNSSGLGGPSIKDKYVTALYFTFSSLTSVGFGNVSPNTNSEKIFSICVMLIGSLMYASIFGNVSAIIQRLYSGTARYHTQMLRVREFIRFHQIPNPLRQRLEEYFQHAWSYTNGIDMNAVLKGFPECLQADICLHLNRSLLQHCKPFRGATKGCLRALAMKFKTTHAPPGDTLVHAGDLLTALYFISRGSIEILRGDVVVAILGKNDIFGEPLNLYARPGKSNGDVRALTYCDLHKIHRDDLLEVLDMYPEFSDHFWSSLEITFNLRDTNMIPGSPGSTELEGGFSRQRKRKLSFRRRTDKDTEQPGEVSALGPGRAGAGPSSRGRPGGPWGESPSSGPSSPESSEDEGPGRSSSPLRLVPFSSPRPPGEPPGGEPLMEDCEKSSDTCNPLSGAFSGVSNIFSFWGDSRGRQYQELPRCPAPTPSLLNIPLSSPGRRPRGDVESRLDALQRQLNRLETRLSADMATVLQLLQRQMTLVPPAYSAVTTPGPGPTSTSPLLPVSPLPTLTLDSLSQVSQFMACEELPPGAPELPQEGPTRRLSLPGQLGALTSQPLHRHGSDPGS

SMILES	hERG current change (%, negative = inhibition) at 1uM
O=C(c1ccc(C(F)(F)F)n(Cc2ccc(Cl)cc2)c1=O)N1CCOCC1	6.82%
Cc1ccc(-c2cc(-c3ccc(F)cc3)n[nH]2)c(O)c1	8.35%
Cc1ccc(S(=O)(=O)N(C)C)cc1NC(=O)C(C)OC(=O)c1ccc2ccccc2n1 (stereo not drawn)	4.36%
CCOc1ccc(NC(=O)CCSc2ccc(C)cc2)cc1	10.5%
O=C(COc1ccc(N2CC(C(=O)O)CC2=O)cc1)Nc1cccc(C(F)(F)F)c1 (stereo not drawn)	23.8%
O=c1c2[nH]c3cccc(Cl)c3c2ncn1Cc1ccco1	11.7%
CC(=O)Nc1ccc(/C(C)=N/NC(=O)c2ccc(COc3ccccc3Cl)o2)cc1	5.1%
COC(=O)C1=[N+]([O-])OC(C(=O)OC)C1c1c[nH]c2ccccc12 (stereo not drawn)	-6.78%
O=C(N/N=C1\CCc2ccccc21)c1ccccc1O	8.05%
NC(=O)CC[C@H](NC(=O)OCc1ccccc1)C(=O)OCc1ccc(Cl)cc1	11.2%
CCC(C)NC(=O)c1c(C)cc(=O)oc1C (stereo not drawn)	12.7%
O=C(O)[C@H](Cc1c[nH]c2ccccc12)Nc1ncccc1[N+](=O)[O-]	3.59%
CC(C)Cc1[nH]c(=O)c(C#N)c2c1CCC2	9.78%
COC(=O)c1ccc([C@H]2C=C(C(=O)O)O[C@@H](OCc3ccc(CO)cc3)C2)cc1	19.8%
Cc1nccn1C[C@@H]1CCc2c(c3ccccc3n2C)C1=O	-0.139%
CC(C)CC(=O)NC(c1ccccc1Cl)c1c(O)ccc2ccccc12 (stereo not drawn)	-0.335%
Cc1cc(-n2nc(C)cc2C)n2nc(C)c(-c3ccccc3)c2n1	10.9%
CCCOc1ccc(S(=O)(=O)N2CCOCC2)cc1[N+](=O)[O-]	-29.4%
CCC(C)(C)C1CCC(=NNc2nc3ccccc3[nH]2)CC1 (stereo not drawn)	12.5%
CCOc1ccc(C(=O)c2nc3c(n2O)CCCCC3)cc1	15%
COc1ccccc1N/C(N)=N/c1nc(CSc2ccc(C)cc2)cc(=O)[nH]1	13.6%
O=C(COC(=O)CCc1ccc(S(=O)(=O)N2CCOCC2)cc1)NC1CCCC1	3.56%
O=C(O)CCS(=O)(=O)c1cccc2cccnc12	13.8%

SMILES	hERG current change (%, negative = inhibition) at 1uM
CCNC(=O)c1ccc(-n2nc(C)cc2-c2ccccc2)cc1	5.17%
CCOc1cccc(C(=O)Nc2cccc(-c3nnc(-c4ccc(C)cc4)o3)c2)c1	12.9%
CCOCCc1nnc(NC(=O)CN2C(=O)c3ccccc3C2=O)s1	-8.7%
CCCC(=O)N=c1sc2cccc(F)c2n1C	3.66%
Cc1ccc(SCCNC(=O)C(C)C)cc1	12.6%
CC(Sc1nnc(N)s1)C(=O)NC1CCCCC1C (stereo not drawn)	-2.98%
O=C(Nc1cccc(-c2ccc(N3CCCCC3)nn2)c1)C(F)(F)F	6.42%
Cc1ccc(N(C(C)C(=O)N2CCN(Cc3ccccc3)CC2)S(C)(=O)=O)cc1 (stereo not drawn)	5.58%
CCOc1ccc(NC(=O)CCN2CCN(S(=O)(=O)c3ccc(F)cc3)CC2)cc1	11.5%
COC(=O)C1=C(Nc2cc(Cl)cc(Cl)c2)CSC1	12.5%
Cc1ccccc1NC(=O)N1c2ccccc2CC1C (stereo not drawn)	12.5%
CC(=O)c1cn(Cc2ccccc2C#N)c2ccccc12	28.3%
Cc1ccc(/C=N/n2nnnc2N)o1	-1.91%
Cc1nn(C)cc1C(C)NC(=O)c1cc(COc2ccc(F)c(F)c2)on1 (stereo not drawn)	6.26%
CCC(Sc1nc(N)cc(N)n1)C(=O)O (stereo not drawn)	8.78%
CC(=O)c1cccc(NC(=O)Nc2ccc3c(c2)CCC3)c1	9.65%
COc1ccc(/C=C/C(=O)OCC(=O)Nc2cc3oc4ccccc4c3cc2OC)cc1	15.1%
COC(=O)CCC(=O)OC1(C)C(=O)C2=CN(Cc3ccc4c(c3)OCO4)C(c3ccc(OC)cc3)=CC2=C(Br)C1=O (stereo not drawn)	15.8%
COc1ccc(-c2cccc(C(=O)Nc3ccc(OC)c(OC)c3)c2)cc1	5.59%
COC(=O)CSCC(=O)Nc1nnc(-c2ccccc2C)s1	16.2%
CC(C)C[C@H]1CN=C(Nc2ccccc2)N1CCC(C)c1ccccc1 (stereo partly drawn)	-8.04%
COc1ccc(/C=C/C(=O)OCCNC(=O)c2ccncc2)cc1OC	17.4%
Cc1nc2ccc(NS(=O)(=O)c3c(F)cc(F)cc3Br)cc2s1	9.33%

SMILES	hERG current change (%, negative = inhibition) at 1uM
CC(C)CN(C(=O)CN1CCN(c2ccccc2F)CC1)c1c(N)n(CC(C)C)c(=O)[nH]c1=O	18.6%
O=C(O)C1C(C(=O)O)C2(Cl)C(Cl)=C(Cl)C1(Cl)C2(Cl)Cl (stereo not drawn)	10.7%
CCN(CC(=O)NCc1ccc(F)cc1)C(=O)COc1ccc2ccccc2c1	-9.85%
COc1ccc(S(=O)(=O)NC(C)C(=O)Nc2ccccc2C(F)(F)F)cc1 (stereo not drawn)	2.15%
O=C(Cc1ccccc1)c1ccccc1C(=O)N1CCCCC1	15.2%
COc1ccc2[nH]c(C(=O)Nc3ccc(C)c(F)c3)cc2c1	13.5%
COC(=O)c1cccc(NC(=O)CSc2nncn2-c2ccccn2)c1	-0.0535%
ClC(Cl)=C(c1ccc(Cl)cc1)c1ccc(Cl)cc1	1.52%
COc1ccc(Cl)cc1NC(=S)Nc1ccc(Cl)cn1	3.78%
O=C(O)CC(c1cccc(Cl)c1)n1cccc1 (stereo not drawn)	7.7%
Cc1ccc(-n2c(O)c(C=NCc3ccco3)c(=O)[nH]c2=S)cc1C	15.1%
C=CCN1C(=O)C(Cc2ccc(OC)cc2)S/C1=N/N=C/c1ccco1 (stereo not drawn)	-8.04%
COCCNC(=S)Nc1cccc2cnccc12	9.71%
COc1cc(CNCc2ccncc2)cc(Br)c1OCc1ccccc1F.Cl	-24.2%
CCOC(=O)N1CCN(C(=O)NC2CCCCC2)CC1	15.5%
C[C@]12CCC3C(CCC4=C/C(=N/OCC(=O)NC(CCC(N)=O)C(=O)O)CC[C@@]43C)C1CCC2O (stereo partly drawn)	2.61%
COc1ccccc1NC(=O)N1CCCC1C(=O)NCc1ccccc1F (stereo not drawn)	15.3%
N#CC1=C(N)N(c2ncn[nH]2)C2=C(C(=O)CCC2)C1c1ccc(F)cc1 (stereo not drawn)	11.4%
COc1ccc(OC)c(S(=O)(=O)N2CCC(C(=O)NCc3cccnc3)CC2)c1	11.9%
CCOC(=O)c1ccc(NC2=CC(=O)C(=O)c3ccccc32)cc1	8%
CCCS(=O)(=O)N1CCC(C(=O)NC2CCCCC2C)CC1 (stereo not drawn)	19.7%
O=S(=O)(Nc1nc2ccccc2nc1Nc1ccc2c(c1)OCO2)c1ccc(F)cc1	20.2%
Cc1ccc(S(=O)(=O)N/N=C\c2cc3c(cc2Br)OCO3)cc1	2.42%

SMILES	hERG current change (%, negative = inhibition) at 1uM
COc1cc2c(C(=O)N3CCN(c4ccccc4C)CC3)c(C)oc2cc1Br	18.4%
Cc1cc2oc(=O)cc(C)c2cc1NC(=O)CCl	7.4%
CCOC(=O)CSc1nnc(CNC(=O)c2ccccc2OC)n1-c1ccc(OC)cc1	-12.8%
Cc1ccc(Cn2cc(/C=N/NC(=O)Cc3nnc(NC(=O)c4ccc(C)cc4)s3)c3ccccc32)cc1	-3.42%
CCOC(=O)N1CCN=C1SCc1ccc(Cl)c(Cl)c1	4.42%
Cc1ccc(S(=O)(=O)N2CCCCC2)cc1NC(=O)CNCc1ccco1.O=C(O)C(=O)O	6.43%
CCN(N)C(=S)Nc1ccc(F)cc1	17.7%
O=C(Cn1cnc2ccccc2c1=O)Nc1ccccc1N1CCOCC1	7.26%
Cc1cc(C=O)c(C)n1-c1ccc2c(c1)OCO2	11.3%
O=C(N/N=C/c1ccc(Br)cc1)c1ccccc1-n1cccc1	20.2%
CCOc1cc(C(=O)Nc2ccc(S(=O)(=O)NC3=NCCCCC3)cc2)cc(Br)c1OC	15.4%
Cc1cc(Cl)c(OCCOCCN2CCC(C)CC2)c(Br)c1.O=C(O)C(=O)O	-23.7%
CC1(C)CC(=O)c2cc(C(=O)NCc3ccco3)c(=O)n(-c3ccc(Cl)cc3)c2C1	6.22%
CC(=O)Nc1cccc(NC(C)=C(C#N)C#N)c1	12.9%
Cl.O=C(CCN1CCCCCC1)Nc1cccc(Cl)c1	3.74%
c1ccc2c(c1)nc(NCC1CCCO1)c1nnnn12 (stereo not drawn)	6.02%
Cc1cc(=O)oc2cc(OCC(=O)OCC(=O)Nc3c(C)n(C)n(-c4ccccc4)c3=O)ccc12	-1.45%
COc1ccc(CNS(=O)(=O)NCc2ccccc2)cc1OC	13.5%
Cc1ccc(C(C)C)cc1OCC(=O)N1CCN(C(=O)c2ccco2)CC1	4.08%
O=C(COc1cccnc1[N+](=O)[O-])Nc1ncc(Cl)cc1Cl	12.5%
Cc1nn(C)c(C)c1CN(C)C(=O)c1cnn2c1NC(c1ccccc1)CC2C(F)(F)F (stereo not drawn)	-3.12%
